# Screen size: about 290,000 compounds; about 2,100 (0.72%) were called active. This list was built around the results that the source calls inconclusive (neither active nor inactive); the mix of calls is not that of the screen. Calls come from the whole dose curve; as a rule, active = well fitted inhibition curve with a large enough effect; inconclusive = small, poorly fitted or top-dose-only effect, or effect the other way; inactive = flat fitted curve, though single readings scatter. Potencies of inconclusive entries are doubtful fits and often do not repeat.
# Target: Fructose-bisphosphate aldolase (Giardia intestinalis (strain ATCC 50803 / WB clone C6)) (UniProt A8B2U2)
# Chain of UniProt A8B2U2 (A8B2U2 whole entry, looked up): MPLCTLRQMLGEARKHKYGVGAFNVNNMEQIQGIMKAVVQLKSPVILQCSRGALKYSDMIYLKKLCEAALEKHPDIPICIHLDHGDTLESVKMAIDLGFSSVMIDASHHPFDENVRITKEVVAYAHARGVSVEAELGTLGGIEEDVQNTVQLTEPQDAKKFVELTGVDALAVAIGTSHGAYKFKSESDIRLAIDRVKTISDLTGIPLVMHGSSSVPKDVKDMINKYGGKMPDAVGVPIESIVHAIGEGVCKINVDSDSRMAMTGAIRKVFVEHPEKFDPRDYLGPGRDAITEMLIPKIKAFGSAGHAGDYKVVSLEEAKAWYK
# Experiment: qHTS Assay for Inhibitors of Fructose-1,6-bisphosphate Aldolase from Giardia Lamblia; note: nearly all actives have a fitted effect of over 55% in size
# Conditions: purified Giardia FBPA; activity, negative = inhibition: at 59.6 µM (top of the series) unless noted
# Summary of the method: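 40 nM FBPA preincubated 10 min at RT with compound (up to 57.5 uM final), then substrate plus GAPDH/TPI/NAD/arsenate coupling and diaphorase/resazurin added. Fluorescence read after 20 min at RT, 525/598 nm.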
# % is set by controls: 0 for no effect and ±100 for the full control effect; potency is the fitted concentration of half-maximal effect; tags give direction and shape of the fitted curve.
Compound,Potency,"activity, negative = inhibition"
CCOc1cc(/C=N/O)ccc1OCc1ccc(C)cc1,"inconclusive: 15.8 µM [inhibitor, single point]",
CC1CCN(C(=O)CSc2n[nH]c(-c3cccs3)n2)CC1,"inconclusive: 28.2 µM [inhibitor, single point]",
COc1cc(/C=N/NC(=O)c2ccc(CN3C(=O)c4cccc5cccc3c45)cc2)cc(OC)c1O,,inactive: -24.2%
Clc1ccc(-c2nc3ccccc3[nH]2)cn1,"inconclusive: 22.3 µM [inhibitor, single point]",
Brc1ccc(-c2csc(NNC3=NCCCCC3)n2)cc1,"inconclusive: 14.1 µM [inhibitor, partial curve]",
Cc1ccc(N2CCN(CCCN3C(=O)C4CCCN4C3=O)CC2)cc1 (stereo not drawn),"inconclusive: 17.7 µM [inhibitor, single point]",
Cc1ccc(C(=O)NC(=S)Nn2cnnc2)cc1,"inconclusive: 15.8 µM [inhibitor, partial curve]",
Cc1occc1C(=O)Nc1nn[nH]n1,"inconclusive: 14.1 µM [inhibitor, partial curve]",
CCCCn1c2nc3ccccc3nc2c2c(=N)oc(C)nc21,"inconclusive: 17.7 µM [inhibitor, partial curve]",
C=CCc1cc(Cl)ccc1OCCNCCN1CCOCC1,"inconclusive: 15.8 µM [inhibitor, single point]",
COc1ccc(C(=O)NNC(=O)CSc2nnc(C(C)C)n2C)cc1,,inactive: -5.22%
CCOC(=O)c1ccc(N2C(=O)c3n[nH]c(-c4ccco4)c3C2c2cccc([N+](=O)[O-])c2)cc1 (stereo not drawn),,inactive: -5.61%
O=C(CC1Nc2ccccc2NC1=O)NCCCN1CCCCCC1 (stereo not drawn),"inconclusive: 17.7 µM [inhibitor, single point]",
COC(=O)/C=C1\N/C(=N\c2nc(C)cc(C)n2)N(c2ccc(C)cc2)C1=O,"inconclusive: 7.06 µM [inhibitor, partial curve]",
CCOc1ccccc1/C=N/N1CCN(Cc2ccccc2)CC1,"inconclusive: 39.8 µM [inhibitor, single point]",
CC(=O)c1ccc(NC(=S)N2c3ccccc3CC2C)cc1 (stereo not drawn),,inactive: -14.1%
CCOC(=O)N1CCN(C/C(Cl)=C/c2ccccc2)CC1,"inconclusive: 15.8 µM [inhibitor, partial curve]",
O=C(Nc1nnc(C2=COCCO2)o1)c1ccc(S(=O)(=O)N2CCCC2)cc1,active: 3.54 µM,
CCn1ncc(-c2ccnc3cc(C(=O)O)nn23)c1C,active: 15.8 µM,
COc1ccc(Nc2nnc(SCC3CCCCO3)s2)cc1 (stereo not drawn),,inactive: -6.75%
COc1cc(C(O)C(=O)O)ccc1O (stereo not drawn),"inconclusive: 22.3 µM [inhibitor, single point]",
COc1ccc(CN2CCN(S(=O)(=O)c3ccc(F)cc3)CC2)c(OC)c1OC,"inconclusive: 15.8 µM [inhibitor, partial curve]",
CN(C)[C@H]1C(=O)C(C(N)=O)=C(O)[C@]2(O)C(=O)C3=C(O)c4c(O)cccc4[C@@](C)(O)[C@H]3C[C@@H]12,"inconclusive: 7.06 µM [inhibitor, partial curve]",
Cc1ccc(NC(=O)C(=O)NCC2CCCO2)cc1 (stereo not drawn),,inactive: 0.257%

Compound,Potency,"activity, negative = inhibition"
CCOC(=O)NC(=O)CSc1nc2ccc(OCC)cc2[nH]1,,inactive: 0.56%
COc1ccc(-c2nnc(-c3ccc(Br)o3)o2)cc1OC,,inactive: 2.65%
CCn1c(Cc2c(C)[nH]c3ccccc23)n[nH]c1=S,"inconclusive: 15.8 µM [inhibitor, single point]",
COc1cccc(NC(=O)CN(C)CC(=O)Nc2ccc(C)cc2Cl)c1,active: 14.1 µM,
CCc1ccc(S(=O)(=O)/N=C2/C=C(Sc3ncn[nH]3)C(=O)c3ccccc32)cc1,active: 0.792 µM,
Cc1ccccc1OCCNCC(C)O (stereo not drawn),"inconclusive: 7.92 µM [inhibitor, single point]",
COc1ccc(/C=C/C(=O)NCCc2ccc(S(N)(=O)=O)cc2)cc1,,inactive: 8.67%
CC(=O)Nc1cccc(C(=O)O)n1,"inconclusive: 25.1 µM [inhibitor, single point]",
COC(=O)[C@@]1(O)C[C@@H]2O[C@@]1(C)n1c3ccccc3c3c4c(c5c6ccccc6n2c5c31)C(=O)NC4,,inactive: 6.17%
COc1cccc(/C=N/NC(=O)CSc2cccc3cccnc23)c1,"inconclusive: 17.7 µM [inhibitor, single point]",
COc1ccc(S(=O)(=O)Nc2cc3c(C(C)=O)c(C)oc3c3ccccc23)cc1,"inconclusive: 17.7 µM [inhibitor, partial curve]",
O=C1CSC(=Nc2cccc(Cl)c2Cl)N1,"inconclusive: 17.8 µM [inhibitor, partial curve]",
COCCNCc1nc2sc(C)c(-c3ccccc3)c2c(=O)[nH]1,"inconclusive: 17.7 µM [inhibitor, partial curve]",
COc1ccccc1-n1c(CNC(=O)c2cccs2)n[nH]c1=S,"inconclusive: 15.8 µM [inhibitor, single point]",
CC1CCN(CCc2nc3cc(NC(=O)C(C)C)ccc3n2C)CC1,,inconclusive: 45.5% [activator]
CCOc1ccc(NC(=O)C(c2ccccn2)N(C(=O)CCl)c2ccc(OC)cc2)cc1 (stereo not drawn),active: 7.06 µM,
CCCc1nc(S(=O)(=O)Cc2ccc(Cl)cc2Cl)n[nH]1,"inconclusive: 17.7 µM [inhibitor, single point]",
NNC(=O)CSCc1ccc(Cl)cc1Cl,,inactive: -1.03%
COc1ccccc1C1NC(=O)c2ccccc2O1 (stereo not drawn),,inactive: 4.85%
Cc1cccc(C)c1OCCN1CCOCC1,active: 15.8 µM,
O=C(O)c1ccc2c(c1)C(=O)N([C@H](Cc1ccc(-c3ccccc3)cc1)C(=O)O)C2=O,"inconclusive: 19.9 µM [activator, partial curve]",
O=C(O)c1ccc(NS(=O)(=O)c2ccc(Cl)c(Cl)c2)cc1O,"inconclusive: 15.8 µM [activator, single point]",
O=C(Nc1ncc(Cc2ccccc2)s1)C1=NCCN1,"inconclusive: 17.7 µM [inhibitor, partial curve]",
CCNC(=S)NC1CC2CCCC(C1)N2Cc1ccc(C)cc1 (stereo not drawn),"inconclusive: 28.2 µM [inhibitor, single point]",

# From PubChem BioAssay AID2451 (National Center for Advancing Translational Sciences (NCATS), 2010)
